Test results: PMC12136788
The list shows a part of the results.

B1: chr8:18529670:18529771:-|3pUTR|ENSG00000156011|msi1|total|mutant (ssRNA)
RNA: GGGAGUUCUACAGUCCGACGAUCUAAAGCCAUGGAGUUUAUAAAGCCAAGUAACCAUUUGAUAUGGAUAAUAAUAUCUACUCCCGAGAGAGUAUAUAUAUGCACAUUGAUUUUUAAUGCUGUUAAGAUACUUUUGUAAAACUGCAACAGAGGAUUGAGCAUCA
B2: ENSG00000198589:be:win_2601|CDS|ENSG00000198589|bound_else_gene|NA|bound_elsewhere_windowed (ssRNA)
RNA: GGGAGUUCUACAGUCCGACGAUCAGAAUGGAUGCUUUCUCUCUGCUAUUUUAAUCCUAAGAAUUCAGAUGAGCAAAAGAUAACAGAAAUGGUAUACGCCAUAUUCAGAAUCCUGCUUUACCAUGCAGUCAAAUAUGAGUGGGGCAACAGAGGAUUGAGCAUCA
B3: chr21:30319405:30320035:-|CDS|ENSG00000197683|control|control|control (ssRNA)
RNA: GGGAGUUCUACAGUCCGACGAUCGAGGUAUGUGUCCAGCGGCUGUCGUCCACUGAGGCCGCUGCUCAAUAGUUACCAGCCCAUAGGAGACUGUGUGCCCAAUGCCUAUCGCCCCCAAUUCUGCUUGUCCAAGAGUUGCCAGCCCAACAGAGGAUUGAGCAUCA
B4: chr10:116062369:116062470:-|3pUTR|ENSG00000151892|msi1|total|mutant (ssRNA)
RNA: GGGAGUUCUACAGUCCGACGAUCCUUUUUUCACUUCAAAAUGUUUUCAAGGGAAAUUCAGCAGACACCCAACUGUAUUUAAUCCGUGAAAAGAUCUAUAAAGACUCUUACUUUGAAUAAACACAUUAAGUAAGUGUGUCAAAACAACAGAGGAUUGAGCAUCA
B5: chr19:5611119:5611630:-|CDS|ENSG00000130254|control|control|control (ssRNA)
RNA: GGGAGUUCUACAGUCCGACGAUCGCCUCUAGCGAGGAGCUCGCAGAAGCACCCACGGAAGCCCCAAGCCCAGAAGCCAGAGAUAGCAAAGAAGACGGGAGGAAGUUUGAUUUUGACGCUUGUAAUGAAGUCCCUCCGGCUCCUCAACAGAGGAUUGAGCAUCA
B6: chr17:15229982:15230086:-|3pUTR|ENSG00000109099|msi1_unk|FALSE|overlapping (ssRNA)
RNA: GGGAGUUCUACAGUCCGACGAUCUCAUAAAGCCUUCAUCACUCCCACAUUUUUCUUACGGUCGGAGCAUCAGAACAAGCGUCUAGACUCCUUGGGACCGUGAGUUCCUAGAGCUUGGCUGGGUCUAGGCUGUUCUGUGCCUCCCAACAGAGGAUUGAGCAUCA
B7: ENSG00000070961:be:win_4251|3pUTR|ENSG00000070961|bound_else_gene|NA|bound_elsewhere_windowed (ssRNA)
RNA: GGGAGUUCUACAGUCCGACGAUCGUACUAAAUUUUUGCCUACAAUUUACCUUGUUAAAUAUUGUAGAUAAAUUGCUAAUACUAAUAGCCAAAUAGAUAACACUAAUGCUUUGUUUAAAAAAACGAAAAAAACAAAACAAAACACAACAGAGGAUUGAGCAUCA
B8: chr19:2853326:2853433:+|CDS|ENSG00000186300|unk|total|mutant (ssRNA)
RNA: GGGAGUUCUACAGUCCGACGAUCCAAUGUGGGAAAACUUUCAAUUGGCCCAUAUCUUUACGAAAACAUAUGAGAACACAUACCCGAGAGAAACCCUAUGAAUGUAAGCAGUGUGGGAAAGCCUUCAGCUUGUCUGCUUGCUUUCAACAGAGGAUUGAGCAUCA
B9: chr3:193274788:193275041:-|three_prime_utr|ENSG00000187527|control|control|control (ssRNA)
RNA: GGGAGUUCUACAGUCCGACGAUCUCUCCAUUCAAGCAUUCAAAGUAUAUUUUCAAUGAAUUAAACCUUGCAGCAAGGGACCUUAGAUAGGCUUAUUCUGACUGUAUGCUUUACCAAUGAGAGAAAAAAAUGCAUUUCCUGUAUCAACAGAGGAUUGAGCAUCA
B10: chr16:1943973:1944836:-|three_prime_utr|ENSG00000140986|control|control|control (ssRNA)
RNA: GGGAGUUCUACAGUCCGACGAUCUUCCUGCGAGGUCUCAGAGCGCUGUGUAACCGCCCAAGGGGUUCACCUUGCCUGCUGCCUAGACAAAGCCGAUUCAUUAAGACAGGGGAAUUGCAAUAGAGAAAGAGUAAUUCACACAGACAACAGAGGAUUGAGCAUCA
B11: chr8:132572308:132572480:-|CDS|ENSG00000129295|control|control|control (ssRNA)
RNA: GGGAGUUCUACAGUCCGACGAUCGCACAUGGAGAAACUAGAAGUAGACCCUAGCAAGCACUCAUUCCCUGAUGUGACUAACAUAGUUCAAGAGAAAAAACACACACCCAGAAGACGACCUGAACCCAAAAUUAUACCAAGUGACAACAGAGGAUUGAGCAUCA
B12: chr14:39095999:39096113:-|CDS|ENSG00000100934|unk|FALSE|bound_elsewhere (ssRNA)
RNA: GGGAGUUCUACAGUCCGACGAUCACAAUGACAACCUAUUUGGAAUUCAUUCAACAAAAUGAAGAACGAGAUGGAGUCCGAUUUAGUUGGAAUGUUUGGCCAUCAAGUCGACUGGAAGCUACAAGAAUGGUUGUUCCUGUGGCACAACAGAGGAUUGAGCAUCA
B13: chr1:45660537:45660647:-|5pUTR|ENSG00000159592|unk|FALSE|unique (ssRNA)
RNA: GGGAGUUCUACAGUCCGACGAUCAUUUUUGAUCUAUUACCUUGAUGACAUUAUUUGUCCACACUUGAGCCCAUCUGUCUUUCUAGCUAUGACCUUGUUAUGAACAGUAUUUGCACUCGGUGCAAAUAUCCAUGUCUUACCUAACAACAGAGGAUUGAGCAUCA
B14: ENSG00000107863:be:win_51|CDS|ENSG00000107863|bound_else_gene|NA|bound_elsewhere_windowed (ssRNA)
RNA: GGGAGUUCUACAGUCCGACGAUCCAAGGCCUGCGAGGUCUCAAAAAAUAAAGAUGGAAAAGAACAAAGUGAAACUGUAUCACUGUCUGAAGAUGAAACAUUCUCCUGGCCAGGUCCCAAAACAGUUACGUUGAAAAGAACAUCCAACAGAGGAUUGAGCAUCA

Target: T1, UNK ZnF1-6 (called full-length) (human, UniProt Q9C0B0 30-357)
T1 sequence: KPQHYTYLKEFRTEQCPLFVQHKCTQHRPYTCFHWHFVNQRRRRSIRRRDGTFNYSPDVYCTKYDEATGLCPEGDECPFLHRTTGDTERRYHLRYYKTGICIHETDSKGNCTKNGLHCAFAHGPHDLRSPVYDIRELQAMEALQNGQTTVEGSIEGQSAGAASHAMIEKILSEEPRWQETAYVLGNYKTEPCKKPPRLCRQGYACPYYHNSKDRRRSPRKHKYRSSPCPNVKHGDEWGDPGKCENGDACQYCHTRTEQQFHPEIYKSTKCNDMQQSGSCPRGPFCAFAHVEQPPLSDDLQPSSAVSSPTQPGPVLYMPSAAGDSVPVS
Assay: nsRBNS (natural sequence RNA bind-n-seq); RBNS binding buffer (assumed for nsRBNS): 25 mM Tris pH 7.5, 150 mM KCl, 3 mM MgCl2, 0.01% Triton X-100, 500 ug/ml BSA, 20 U/ml SUPERase-In, 4 C; UNK is unkempt and MSI1 is Musashi-1; names of the RNAs are library labels; protein concentration not given here; high values mean tight binding

Point of comparison: B4, binding signal 0.321 enrichment R. Against it:
- B1 — higher, 0.644 enrichment R
- B2 — higher, 0.378 enrichment R
- B3 — higher, 0.656 enrichment R
- B5 — higher, 0.661 enrichment R
- B6 — higher, 0.742 enrichment R
- B7 — higher, 1.41 enrichment R
- B8 — higher, 0.344 enrichment R
- B9 — higher, 0.417 enrichment R
- B10 — higher, 0.744 enrichment R
- B11 — higher, 1.37 enrichment R
- B12 — lower, 0.311 enrichment R
- B13 — higher, 0.413 enrichment R
- B14 — higher, 0.505 enrichment R
